# In PMC6360386:
# The chains behind the UniProt entries cited, without tags or fusion partners.
# UniProt Q05397: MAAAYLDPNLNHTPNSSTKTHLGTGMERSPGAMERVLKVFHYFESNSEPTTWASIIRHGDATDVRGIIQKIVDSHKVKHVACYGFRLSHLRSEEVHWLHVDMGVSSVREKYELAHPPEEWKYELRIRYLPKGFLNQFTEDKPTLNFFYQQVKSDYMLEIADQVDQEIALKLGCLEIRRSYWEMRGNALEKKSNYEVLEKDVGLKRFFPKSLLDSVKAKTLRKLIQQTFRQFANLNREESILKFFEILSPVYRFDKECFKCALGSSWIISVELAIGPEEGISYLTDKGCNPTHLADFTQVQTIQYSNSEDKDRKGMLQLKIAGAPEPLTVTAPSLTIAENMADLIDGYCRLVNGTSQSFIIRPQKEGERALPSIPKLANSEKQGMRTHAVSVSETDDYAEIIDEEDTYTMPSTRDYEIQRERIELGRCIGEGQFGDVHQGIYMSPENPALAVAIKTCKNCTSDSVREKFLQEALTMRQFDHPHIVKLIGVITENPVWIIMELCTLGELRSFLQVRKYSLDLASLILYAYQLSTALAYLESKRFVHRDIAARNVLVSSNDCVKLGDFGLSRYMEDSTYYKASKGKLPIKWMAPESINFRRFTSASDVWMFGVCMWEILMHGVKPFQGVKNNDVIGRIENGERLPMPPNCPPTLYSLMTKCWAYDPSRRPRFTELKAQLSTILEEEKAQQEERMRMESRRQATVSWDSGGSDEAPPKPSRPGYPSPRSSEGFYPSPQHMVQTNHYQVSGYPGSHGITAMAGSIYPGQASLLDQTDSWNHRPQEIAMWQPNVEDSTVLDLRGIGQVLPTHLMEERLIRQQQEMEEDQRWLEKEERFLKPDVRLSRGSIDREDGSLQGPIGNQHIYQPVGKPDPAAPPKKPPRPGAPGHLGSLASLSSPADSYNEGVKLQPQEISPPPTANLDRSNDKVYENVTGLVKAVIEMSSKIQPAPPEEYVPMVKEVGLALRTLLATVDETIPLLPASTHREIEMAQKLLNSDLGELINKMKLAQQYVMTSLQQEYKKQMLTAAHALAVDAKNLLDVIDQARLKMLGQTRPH
# UniProt Q8K045: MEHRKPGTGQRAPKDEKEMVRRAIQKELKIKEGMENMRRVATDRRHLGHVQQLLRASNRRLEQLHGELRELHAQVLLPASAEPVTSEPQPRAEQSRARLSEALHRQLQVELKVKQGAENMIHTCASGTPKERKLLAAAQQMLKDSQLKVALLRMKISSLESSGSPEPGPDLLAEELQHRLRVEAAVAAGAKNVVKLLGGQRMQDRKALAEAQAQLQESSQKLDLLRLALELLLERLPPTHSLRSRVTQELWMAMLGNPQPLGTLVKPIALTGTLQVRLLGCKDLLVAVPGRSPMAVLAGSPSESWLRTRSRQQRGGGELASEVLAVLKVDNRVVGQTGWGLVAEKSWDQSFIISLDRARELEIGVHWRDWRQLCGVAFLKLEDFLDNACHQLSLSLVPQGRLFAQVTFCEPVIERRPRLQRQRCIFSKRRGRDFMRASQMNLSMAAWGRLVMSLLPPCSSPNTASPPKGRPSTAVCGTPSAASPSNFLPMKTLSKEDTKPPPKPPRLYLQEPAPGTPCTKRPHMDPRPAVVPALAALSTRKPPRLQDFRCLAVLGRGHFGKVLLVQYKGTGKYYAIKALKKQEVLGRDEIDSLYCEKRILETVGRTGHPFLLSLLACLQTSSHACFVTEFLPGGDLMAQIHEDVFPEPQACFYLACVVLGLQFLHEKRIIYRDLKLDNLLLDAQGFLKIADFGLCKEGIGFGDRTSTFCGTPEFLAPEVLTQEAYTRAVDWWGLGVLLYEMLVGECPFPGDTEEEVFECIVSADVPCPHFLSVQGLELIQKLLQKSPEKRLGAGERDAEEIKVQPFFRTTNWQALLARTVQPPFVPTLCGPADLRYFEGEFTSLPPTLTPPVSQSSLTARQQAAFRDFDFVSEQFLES
# UniProt Q6P5Z2: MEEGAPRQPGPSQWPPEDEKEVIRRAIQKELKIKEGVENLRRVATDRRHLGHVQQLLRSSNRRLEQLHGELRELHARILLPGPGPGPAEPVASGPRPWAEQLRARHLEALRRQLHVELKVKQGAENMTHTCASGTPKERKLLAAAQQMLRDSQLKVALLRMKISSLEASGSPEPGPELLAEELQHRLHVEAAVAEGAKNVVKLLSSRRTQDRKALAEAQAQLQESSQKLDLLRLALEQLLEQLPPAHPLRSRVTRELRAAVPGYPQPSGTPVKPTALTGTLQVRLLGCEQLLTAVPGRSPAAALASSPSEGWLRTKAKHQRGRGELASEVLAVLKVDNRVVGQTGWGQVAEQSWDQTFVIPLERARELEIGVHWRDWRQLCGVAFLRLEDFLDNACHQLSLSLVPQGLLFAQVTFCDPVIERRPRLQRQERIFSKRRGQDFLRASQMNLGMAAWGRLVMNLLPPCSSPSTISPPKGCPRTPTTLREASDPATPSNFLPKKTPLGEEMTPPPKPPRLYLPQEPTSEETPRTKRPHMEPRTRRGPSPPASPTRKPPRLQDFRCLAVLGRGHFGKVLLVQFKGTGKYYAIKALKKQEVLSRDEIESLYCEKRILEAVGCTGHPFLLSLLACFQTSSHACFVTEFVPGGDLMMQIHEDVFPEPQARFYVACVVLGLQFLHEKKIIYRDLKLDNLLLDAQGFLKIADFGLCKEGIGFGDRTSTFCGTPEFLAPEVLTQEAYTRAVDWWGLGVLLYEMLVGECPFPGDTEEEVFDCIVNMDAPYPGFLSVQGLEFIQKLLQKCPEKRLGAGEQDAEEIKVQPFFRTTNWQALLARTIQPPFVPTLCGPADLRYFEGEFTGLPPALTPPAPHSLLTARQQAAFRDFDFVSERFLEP
# Substitutions are numbered along the chain they refer to. No constants are given. Whether binding was seen depends on the method and setting. In cells and extracts the contact can be indirect. Some entries that bind do so weakly or less than the wild type. Tags and fused reporters may be left off the sequences shown.
# How the values were obtained:
# [1] = biological target: T1, GFP-p130Cas WT (mouse, full-length) (mouse) (UniProt Q61140); test: co-IP; MDA-MB-231 cells transiently transfected with mouse GFP-p130Cas variants; immunoprecipitation with anti-GFP antibody; blots with anti-PKN3 and anti-FAK; 1% Triton lysis buffer
# T1 sequence: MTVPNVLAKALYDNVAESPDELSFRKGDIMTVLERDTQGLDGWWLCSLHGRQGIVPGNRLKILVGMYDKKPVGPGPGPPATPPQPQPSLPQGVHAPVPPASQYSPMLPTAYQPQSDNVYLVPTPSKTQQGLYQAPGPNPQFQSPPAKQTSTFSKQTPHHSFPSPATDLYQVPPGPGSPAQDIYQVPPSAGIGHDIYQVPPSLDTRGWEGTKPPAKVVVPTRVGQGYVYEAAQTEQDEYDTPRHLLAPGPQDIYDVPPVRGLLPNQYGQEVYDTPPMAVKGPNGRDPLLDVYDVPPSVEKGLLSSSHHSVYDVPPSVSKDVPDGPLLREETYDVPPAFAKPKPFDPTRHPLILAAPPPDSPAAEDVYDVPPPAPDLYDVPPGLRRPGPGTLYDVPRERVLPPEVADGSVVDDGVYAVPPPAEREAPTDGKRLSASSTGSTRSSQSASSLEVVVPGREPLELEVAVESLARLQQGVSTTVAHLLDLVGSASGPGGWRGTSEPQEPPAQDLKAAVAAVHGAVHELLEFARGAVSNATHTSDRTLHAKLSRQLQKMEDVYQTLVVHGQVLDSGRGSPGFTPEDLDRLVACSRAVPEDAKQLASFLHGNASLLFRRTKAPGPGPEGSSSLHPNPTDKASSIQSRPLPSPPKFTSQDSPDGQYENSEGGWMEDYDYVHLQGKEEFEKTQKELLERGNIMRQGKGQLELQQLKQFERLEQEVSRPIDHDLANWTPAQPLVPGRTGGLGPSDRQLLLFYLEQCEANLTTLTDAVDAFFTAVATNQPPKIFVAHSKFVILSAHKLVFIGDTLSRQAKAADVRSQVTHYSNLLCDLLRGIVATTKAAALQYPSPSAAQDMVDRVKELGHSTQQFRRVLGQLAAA
# [2] = biological target: T2, GST-fused p130Cas SH3 domain WT (mouse) (UniProt Q61140); test: pull-down; purified GST-fused p130Cas SH3 variants as bait, lysates of MEFs expressing Flag-PKN3 variants; 1% Triton lysis buffer (50 mM Tris/HCl pH 7.1, 150 mM NaCl, 1% Triton X-100); anti-Flag immunoblot, bound PKN3 quantified relative to Flag-PKN3 WT; only the target purified
# T2 sequence: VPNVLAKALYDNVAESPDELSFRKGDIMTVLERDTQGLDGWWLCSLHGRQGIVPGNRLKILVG
# [3] = biological target: T3, GFP-p130Cas Y12E (mouse, full-length) (mouse) (UniProt Q61140); test: co-IP; MDA-MB-231 cells transiently transfected with mouse GFP-p130Cas variants; immunoprecipitation with anti-GFP antibody; blots with anti-PKN3 and anti-FAK; 1% Triton lysis buffer
# T3 sequence: T1 sequence with Y12E
# [4] = biological target: T4, GFP-p130Cas Y12F (mouse, full-length) (mouse) (UniProt Q61140); test: as above
# T4 sequence: T1 sequence with Y12F
Substance,binding [1],binding [2],binding [3],binding [4]
"FAK, endogenous in MDA-MB-231 cells (from UniProt Q05397 1-1052) (enzyme)",binds,–,–,–
"Flag-PKN3 WT (mouse), expressed in MEFs (from UniProt Q8K045 1-878) (enzyme)",–,binds,–,–
"PKN3, endogenous in MDA-MB-231 cells (from UniProt Q6P5Z2 1-889) (enzyme)",binds,–,no binding,binds
